Reference: PMC5308896, “A conformational switch regulates the ubiquitin ligase HUWE1” (eLife, 2017)
Results are given in words; binding and its absence hold for the method and conditions named. For some of these results: In cells and extracts the contact can be indirect. Some results given as binding are weak or reduced against the parent protein; the word gives no strength. One block for each molecule: values may come before it.

Experiments:
[1] = target: HUWE1 (2474–4374) WT, HA- and FLAG-tagged versions (human) (UniProt Q7Z6Z7); assay: co-IP; inverse co-IP (FLAG-IP) from transiently transfected HeLa cells; data not shown
[2] = target: HUWE1 (2474–4374) WT, HA- and FLAG-tagged versions (human) (UniProt Q7Z6Z7); assay: co-IP; HeLa cells stably expressing HA- and FLAG-tagged HUWE1 (2474–4374) WT, made by lentiviral transduction (higher HUWE1 levels than transient transfection)
[3] = target: HUWE1 (2474–4374) WT, HA- and FLAG-tagged versions (human) (UniProt Q7Z6Z7); assay: co-IP; HeLa cells stably expressing HA- and FLAG-tagged HUWE1 (2474–4374) WT, made by transposon-mediated gene delivery (significantly lower HUWE1 levels than transient transfection)
[4] = target: HUWE1 (2474–4374) WT, HA- and FLAG-tagged versions (human) (UniProt Q7Z6Z7); assay: co-IP; HeLa cells transiently transfected with HA- and FLAG-tagged HUWE1 (2474–4374); lysis in TNT buffer (50 mM Tris pH 8.0, 250 mM NaCl, 1% Triton X-100); protein G-agarose with anti-HA or anti-FLAG
[5] = target: HUWE1 (3951–4374) I3969A/F3982A (human) (UniProt Q7Z6Z7); assay: SEC-MALS; proteins injected at high concentration (~350 to 400 μM; highest point of Figure 3A, Figures 4A, 4F, 4G, Table 2); Superdex 200 10/300 GL, room temperature, 20 mM HEPES pH 8.0, 250 mM NaCl, 1 mM EDTA, 5 mM DTT; both purified
[6] = target: HUWE1 (3975–4374) (human) (UniProt Q7Z6Z7); assay: SAXS; ~40 μM protein, 10°C, 20 mM HEPES pH 8.0, 150 mM NaCl, 1 mM EDTA, 5 mM DTT; profiles compared with curves simulated from the crystal structure; Rg from Guinier fits; both purified
[7] = target: HUWE1 (3975–4374) (human) (UniProt Q7Z6Z7); assay: SEC-MALS; proteins injected at high concentration (~350 to 400 μM; highest point of Figure 3A, Figures 4A, 4F, 4G, Table 2); Superdex 200 10/300 GL, room temperature, 20 mM HEPES pH 8.0, 250 mM NaCl, 1 mM EDTA, 5 mM DTT; both purified
[8] = target: HUWE1 (3975–4374) (human) (UniProt Q7Z6Z7); assay: SEC; MBP-tagged activation segment (or MBP) and HUWE1 constructs, each alone at 120 μM and as a 1.5:1 molar mixture; Superdex 200 Increase 3.2/300, 4°C, 20 mM HEPES pH 8.0, 100 mM NaCl, 1 mM EDTA, 5 mM DTT; both purified
[9] = target: HUWE1 (3993–4374), HECT domain (human) (UniProt Q7Z6Z7); assay: as above
[10] = target: T1, HUWE1 (3993–4374), HECT domain (human), Q7Z6Z7; assay: SEC-MALS; proteins injected at high concentration (~350 to 400 μM; highest point of Figure 3A, Figures 4A, 4F, 4G, Table 2); Superdex 200 10/300 GL, room temperature, 20 mM HEPES pH 8.0, 250 mM NaCl, 1 mM EDTA, 5 mM DTT; both purified; conditions: remark: other sources report otherwise
T1 chain: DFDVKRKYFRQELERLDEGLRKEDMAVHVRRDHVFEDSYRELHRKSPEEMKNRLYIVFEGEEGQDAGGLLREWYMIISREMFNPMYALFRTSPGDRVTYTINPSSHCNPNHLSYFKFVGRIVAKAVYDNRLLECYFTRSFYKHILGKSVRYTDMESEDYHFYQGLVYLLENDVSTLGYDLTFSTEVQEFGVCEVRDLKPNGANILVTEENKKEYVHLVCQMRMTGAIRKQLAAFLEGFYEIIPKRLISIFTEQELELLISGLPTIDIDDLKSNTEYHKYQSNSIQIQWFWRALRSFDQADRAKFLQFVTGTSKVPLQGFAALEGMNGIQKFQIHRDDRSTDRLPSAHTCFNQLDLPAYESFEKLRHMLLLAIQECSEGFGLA

binding [5]: no binding (tested: ~350 μM)
Molecule: HUWE1 (3951–4374) I3969A/F3982A (from UniProt Q7Z6Z7 3951-4374) (domain or fragment)

binding [6]: no binding (tested: 40 μM)
binding [7]: no binding (tested: 380 μM)
Molecule: HUWE1 (3975–4374) (from UniProt Q7Z6Z7 3975-4374) (domain or fragment)

The next lines start with the molecule.

Molecule: HUWE1 (2474–4374) WT, HA- and FLAG-tagged versions (from UniProt Q7Z6Z7 2474-4374) (domain or fragment)
binding [1]: binds
binding [2]: binds
binding [3]: binds
binding [4]: binds

Molecule: MBP-tagged activation segment of HUWE1 (residues 3843–3902) (from UniProt Q7Z6Z7 3843-3902) (domain or fragment)
binding [8]: no binding (tested: 120 μM, 1.5:1 molar mixture)
binding [9]: no binding (tested: 120 μM, 1.5:1 molar mixture)

B1: HUWE1 (3993–4374), HECT domain, Q7Z6Z7 3993-4374 (domain or fragment)
chain: T1 chain
binding [10]: no binding (tested: 400 μM)
